# Measured values: paper PMC4336329 (PLoS ONE, 2015)
# Among all 310,000 compounds or so, about 14,000 (4.5%) showed an effect of 50% or more. Effects have a minus sign here. This is one part of the list.
# Molecular target: human ether-à-go-go-related gene (hERG) potassium channel (human, UniProt Q12809)
# Experiment: primary screen, population patch clamp on CHO cells stably expressing hERG
# 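Also: peak tail current of the secondary pulse compared with the same well before compound.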
# human ether-à-go-go-related gene (hERG) potassium channel, sequence (Q12809 whole entry, looked up): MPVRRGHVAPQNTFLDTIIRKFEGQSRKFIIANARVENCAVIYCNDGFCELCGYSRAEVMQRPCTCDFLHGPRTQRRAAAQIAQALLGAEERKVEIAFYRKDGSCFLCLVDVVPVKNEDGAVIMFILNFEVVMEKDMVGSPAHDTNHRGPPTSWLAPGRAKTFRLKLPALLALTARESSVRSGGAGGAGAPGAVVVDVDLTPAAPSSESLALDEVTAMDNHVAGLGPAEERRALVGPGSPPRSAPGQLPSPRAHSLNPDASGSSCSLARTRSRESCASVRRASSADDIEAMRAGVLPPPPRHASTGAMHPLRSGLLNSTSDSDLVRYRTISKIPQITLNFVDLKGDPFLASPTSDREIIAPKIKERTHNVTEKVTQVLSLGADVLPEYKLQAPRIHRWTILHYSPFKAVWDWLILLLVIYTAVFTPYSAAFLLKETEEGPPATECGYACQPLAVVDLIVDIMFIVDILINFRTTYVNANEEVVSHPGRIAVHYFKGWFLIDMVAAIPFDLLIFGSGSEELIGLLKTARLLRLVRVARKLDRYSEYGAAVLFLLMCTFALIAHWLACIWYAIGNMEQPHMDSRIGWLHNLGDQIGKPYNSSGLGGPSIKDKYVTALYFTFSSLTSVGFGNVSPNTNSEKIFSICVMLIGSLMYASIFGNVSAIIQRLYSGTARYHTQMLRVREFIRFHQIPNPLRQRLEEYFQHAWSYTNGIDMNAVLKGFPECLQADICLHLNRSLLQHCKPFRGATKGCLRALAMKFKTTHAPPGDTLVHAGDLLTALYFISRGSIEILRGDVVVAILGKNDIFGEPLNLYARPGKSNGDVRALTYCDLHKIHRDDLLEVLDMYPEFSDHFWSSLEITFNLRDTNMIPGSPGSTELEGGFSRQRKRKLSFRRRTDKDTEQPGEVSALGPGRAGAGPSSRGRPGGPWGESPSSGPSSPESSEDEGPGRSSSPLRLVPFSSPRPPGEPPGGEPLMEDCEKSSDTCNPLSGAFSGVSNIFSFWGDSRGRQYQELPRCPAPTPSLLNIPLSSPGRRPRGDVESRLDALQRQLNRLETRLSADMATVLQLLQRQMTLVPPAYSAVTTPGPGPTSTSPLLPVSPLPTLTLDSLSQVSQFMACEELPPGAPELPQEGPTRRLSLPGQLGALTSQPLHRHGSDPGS
row,SMILES,"hERG current change (%, negative = inhibition) at 10uM"
1,CCOC(=O)C1=C(CC)Nc2ccccc2N=C1NC(=O)CCNC(C)=O,-0.111%
2,Cc1nn(-c2ccccc2)c(OC(=O)c2cccs2)c1S(=O)(=O)c1ccc([N+](=O)[O-])cc1,10.1%
3,CC(C)(C)c1ccc(C(=O)NN2CCOCC2)cc1,-36.6%
4,O=C(O)c1cccc(N=NN2CCCCCC2)c1,5.08%
5,CCN1CCCC1CNS(=O)(=O)c1ccc(Cl)c(C(F)(F)F)c1 (stereo not shown),-19.1%
6,CCOC(=O)C1CCCCN1Cc1cc(OC)ccc1OC (stereo not shown),5.17%
7,O=C(CCc1ccc(Oc2cc([N+](=O)[O-])cc([N+](=O)[O-])c2)cc1)Nc1cccc(Cl)c1,1.31%
8,N#Cc1nc(Cc2ccccc2)oc1N1CCN(c2ccccc2)CC1,-20%
9,O=C(CCCN1C(=O)/C(=C/c2ccccc2)SC1=S)Nc1ccc(O)cc1,1.19%
10,COc1ccc(NC(=S)NCc2cccs2)cc1,14.5%
11,CCOc1ccc(OCC(=O)N2CCOCC2)cc1,10.2%
12,O=C(O)c1ccc(N/N=C/C=C/c2ccccc2[N+](=O)[O-])cc1,6.89%
13,CC(C(=O)NC1CCCCCC1)N(c1ccccc1)S(C)(=O)=O (stereo not shown),22.5%
14,CCCC(=O)N/C(N)=N/c1nc2ccccc2o1,-26%
15,CCc1ccccc1NC(=O)C(C#N)Cc1cccnc1 (stereo not shown),-1.27%
16,O=C(OCc1ccccc1F)c1cnc(Cl)c(Cl)c1,9.52%
17,O=C(Nc1ccc(NC(=O)C2CC2)cn1)c1ccccc1Cl,-0.204%
18,O=C(Oc1ccc(Cl)c2cccnc12)N1CCCCC1,-5.05%
19,COc1ccc(-c2ncc3ccccn23)cc1OC.O=C(O)C(=O)O,-1.63%
20,Cc1ccc(CCNC(=O)C2CCN(c3nn4c(=O)cc(C)nc4s3)CC2)cc1,-33.4%
21,CCCCn1c(=O)[nH]c(=O)c2c1nc(COc1ccc(C#N)cc1)n2CCC,-57.2%
22,CCOC(=O)c1c(NC(=O)COC(=O)c2nc(Cl)ccc2Cl)sc(C(=O)N(C)C)c1C,0.337%

row,SMILES,"hERG current change (%, negative = inhibition) at 10uM"
1,CS(=O)(=O)N1CCC(C(=O)NNC(=O)Nc2ccc(F)c(Cl)c2)CC1,-11.6%
2,COc1cc(OC)c(OC)cc1CN1CCN(C(=O)COc2ccc3ccccc3c2)CC1.O=C(O)C(=O)O,-36.4%
3,COc1ccc(-c2noc(N3CCC(C(=O)NCc4ccc(F)cc4)CC3)n2)cc1,-20.4%
4,COc1ccc(N2CCN(c3c(S(=O)(=O)c4ccccc4)cnc4ccc(OC)cc34)CC2)cc1,-17.7%
5,CC(=O)c1ccc(N2C(=O)[C@@H]3C(CCC(N)=O)NC4(C(=O)Nc5c4ccc(Cl)c5C)[C@@H]3C2=O)cc1 (stereo partly shown),11%
6,CCSc1nnc(N2C(=O)C(O)=C(C(=O)c3ccco3)C2c2cccc(OC)c2)s1 (stereo not shown),-2.02%
7,COC(=O)C[N+](C)(C)CC#Cc1ccccc1.[Br-],2.14%
8,O=C(Nc1nnc(CC(=O)N2CCOCC2)s1)C1COc2ccccc2O1 (stereo not shown),2.97%
9,CCN=C1SC(C(=O)Nc2ccccc2)CC(=O)N1CC (stereo not shown),11.9%
10,COC(=O)c1cc2oc(C)cc2n1CC(=O)N1CCCc2ccccc21,-11.9%
11,COc1ccccc1-n1cc(CN2CCN(C3CCCC3)C(CCO)C2)cn1 (stereo not shown),-15.3%
12,COc1ccc(NC(=O)C(C)N(c2ccc(C)cc2)S(C)(=O)=O)cc1 (stereo not shown),-22.6%
13,C/C(=N\NC(=O)CC(C)C)c1ccc(N2CCCCC2)cc1,-1.29%
14,O=C(NCc1ccccc1)c1onc(CS(=O)(=O)c2ccccn2)c1C(=O)NCc1ccccc1,-35.3%
15,O=C(CSc1ccc(Cl)cc1)NC1CCCc2ccccc21 (stereo not shown),13.9%
16,COc1ccc(-c2cc(C(=O)Nc3ccccc3)on2)cc1,46.6%
17,COc1cc2c3nnc(-c4ccccc4)c-3cn(Cc3ccccc3F)c2cc1OC,-0.741%
18,CCc1ccc(C2=Nn3c(nnc3-c3cccs3)SC2)cc1,-12.2%
19,CC1CCN(C(=O)COC(=O)c2ccccc2NC(=O)c2ccco2)CC1,-60.9%
20,CCOC(=O)c1sc2nc(N3CCOCC3)c3c(c2c1N)CCCC3,9.05%
21,COC(=O)c1scc(C)c1NS(=O)(=O)c1ccc(NC(C)=O)cc1,0.324%
22,O=C1CC(Cc2ccccc2)C(=O)N1CCc1ccc2c(c1)OCO2 (stereo not shown),-23.4%

row,SMILES,"hERG current change (%, negative = inhibition) at 10uM"
1,CC(C)C(NC(=O)OCc1ccccc1)C(=O)O (stereo not shown),8.66%
2,CCOC(=O)C1CCN(C(=O)CN2C(=O)COc3ccc(C(C)(C)C)cc32)CC1,-19.3%
3,CCOC(=O)C[C@H]1c2ccccc2S(=O)(=O)N1C1CC1,5.78%
4,COc1ccc(Nc2nc(C(=O)N(CCO)Cc3ccccc3)cs2)cc1,-17.1%
5,CN(C)/C=C(/C(=O)c1ccc(Cl)cc1)n1cncn1,-5.95%
6,CN(C)S(=O)(=O)c1ccc(C(=O)Nc2cc(S(=O)(=O)Nc3ccccc3Cl)ccc2N2CCCCC2)cc1,25.5%
7,COc1ccc(Cl)cc1S(=O)(=O)NC(C)C(=O)NCCCn1ccnc1 (stereo not shown),6.81%
8,CC(C)C(=O)NC(Nc1cccc([N+](=O)[O-])c1)C(Cl)(Cl)Cl (stereo not shown),-18.6%
9,CCOc1ccc(C2OC(=O)Cc3cc(OC)c(OC)cc32)cc1 (stereo not shown),-4.4%
10,COc1ccc(C(=O)c2c(O)cc(-c3ccc(OC)cc3)oc2=O)cc1,5.24%
11,CCN(CC)CCN(Cc1cc2cc3c(cc2[nH]c1=O)OCCO3)C(=S)NCCCN(C)C,12.1%
12,CCOc1ccc(N=Cc2ccc3ccccc3c2)cc1,-0.84%
13,O=C1NCC(O)=C1C=NC12CC3CC(CC(C3)C1)C2 [14736166],3.2%
14,CCCCOc1ccc(C(=O)N2CCN(c3ccc(N4CCOCC4)nn3)CC2)cc1,-41.2%
15,CCOC(=O)c1cc2occc2n1Cc1c(F)cccc1Cl,7.64%
16,Cc1cc(C)c(NC(=O)C2CC3CCC2C3)c(C)c1 (stereo not shown),26.1%
17,CCCCCNS(=O)(=O)c1cc2c3c(c1)CCC(=O)N3CCC2,-14.6%
18,C[C@]1(CO)CCC[C@@]2(C)C1CC[C@@H](CO)[C@@H]2CCc1ccoc1 (stereo partly shown),-6.31%
19,Nn1c(-c2ccccn2)nnc1-c1ccccn1,-1.69%
20,COc1ccc(S(=O)(=O)N(Cc2ccccc2)c2ccccc2C(=O)N2CCOCC2)cc1,-8.54%
21,Cc1ccc(/C=N/NC(=O)c2cc3c(ccc4ccccc43)o2)cc1[N+](=O)[O-],3.49%
22,COc1ccc(S(=O)(=O)N(C)CC(=O)Nc2ccc3c(c2)OCO3)cc1OC,-21.6%

row,SMILES,"hERG current change (%, negative = inhibition) at 10uM"
1,COC(=O)C1CCN(C(=O)COC(=O)c2ccc(=O)n(Cc3ccccc3)n2)CC1,-4.78%
2,CCS(=O)(=O)Nc1ccc(C(=O)NCCSc2ccccc2)cc1,-11.1%
3,CN(C)S(=O)(=O)c1ccc(C(=O)NCc2ccccc2)cc1,-14.7%
4,Cc1ccc(NC(=O)Cn2ncn3c(cc4ccccc43)c2=O)cc1F,17.5%
5,Cc1ccc(S(=O)(=O)N2CCN(S(C)(=O)=O)CC2)cc1,-4.95%
6,CCC(C)NS(=O)(=O)c1ccc(NS(=O)(=O)c2ccc(F)cc2)cc1 (stereo not shown),-0.423%
7,COc1ccc(NC(=O)CN(C)S(=O)(=O)c2ccc3c(c2)OCCO3)c2ncccc12,2.91%
8,Cn1c(=O)cc(N)n(Cc2ccccc2)c1=O,16.5%
9,O=S(=O)(Nc1ccc(Br)cn1)c1ccc(Cl)s1,10.2%
10,CCC(C)(C)NC(=O)C(c1ccccc1Cl)N(Cc1cccnc1)C(=O)CCC(=O)Nc1cc(C)on1 (stereo not shown),7.68%
11,CN(C)/C=N/c1nc2nccc(-c3cccc(Cl)c3)n2n1,15.4%
12,CN(C)c1nc(OCCNC(=O)Nc2ccc(Cl)cc2)nc(N(C)C)n1,11.9%
13,O=c1cc(NCc2ccc3c(c2)OCO3)[nH]c(=O)n1-c1ccc(Cl)cc1,-0.329%
14,O=C(/C=C/c1ccccc1)Nc1cccnc1,-26%
15,COc1cc(C(=O)NCCCNC(=O)c2cc(OC)c(OC)c(OC)c2)cc(OC)c1OC,7.38%
16,O=C(NC1CCCC1)c1ccc(CNc2c(N3CCOCC3)c(=O)c2=O)cc1,12.9%
17,C#CCn1c(=NC(=O)c2cccs2)sc2cccc(OCC)c21,16%
18,CN(CC(=O)Nc1ccc(F)c(F)c1F)C(=O)CN1C(=O)C2CCCCC2C1=O (stereo not shown),-18.2%
19,c1cc(-c2n[nH]c(-c3ccncc3)n2)ccn1,14.1%
20,COCC(=O)Nc1ccc(C(C)C)cc1,-1.68%
21,CCOC(=O)C1(Cc2cccc(F)c2)CCN(C(=O)c2cnccn2)CC1,1.05%
22,COc1ccc(C(=O)Nc2cc(OCc3ccccc3)c(Cl)cc2Cl)cc1,15.7%
